Test results taken from article PMC4336329 (PLoS ONE, 2015).
About 14,000 (4.5%) of roughly 310,000 compounds showed an effect of 50% or more. The effect is printed as a negative number. Some of the results follow.

Biological target: human ether-à-go-go-related gene (hERG) potassium channel (human, UniProt Q12809)
Assay: primary screen, population patch clamp on CHO cells stably expressing hERG
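Also: peak tail current of the secondary pulse compared with the same well before compound.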

Sequence of human ether-à-go-go-related gene (hERG) potassium channel (Q12809 whole entry, looked up): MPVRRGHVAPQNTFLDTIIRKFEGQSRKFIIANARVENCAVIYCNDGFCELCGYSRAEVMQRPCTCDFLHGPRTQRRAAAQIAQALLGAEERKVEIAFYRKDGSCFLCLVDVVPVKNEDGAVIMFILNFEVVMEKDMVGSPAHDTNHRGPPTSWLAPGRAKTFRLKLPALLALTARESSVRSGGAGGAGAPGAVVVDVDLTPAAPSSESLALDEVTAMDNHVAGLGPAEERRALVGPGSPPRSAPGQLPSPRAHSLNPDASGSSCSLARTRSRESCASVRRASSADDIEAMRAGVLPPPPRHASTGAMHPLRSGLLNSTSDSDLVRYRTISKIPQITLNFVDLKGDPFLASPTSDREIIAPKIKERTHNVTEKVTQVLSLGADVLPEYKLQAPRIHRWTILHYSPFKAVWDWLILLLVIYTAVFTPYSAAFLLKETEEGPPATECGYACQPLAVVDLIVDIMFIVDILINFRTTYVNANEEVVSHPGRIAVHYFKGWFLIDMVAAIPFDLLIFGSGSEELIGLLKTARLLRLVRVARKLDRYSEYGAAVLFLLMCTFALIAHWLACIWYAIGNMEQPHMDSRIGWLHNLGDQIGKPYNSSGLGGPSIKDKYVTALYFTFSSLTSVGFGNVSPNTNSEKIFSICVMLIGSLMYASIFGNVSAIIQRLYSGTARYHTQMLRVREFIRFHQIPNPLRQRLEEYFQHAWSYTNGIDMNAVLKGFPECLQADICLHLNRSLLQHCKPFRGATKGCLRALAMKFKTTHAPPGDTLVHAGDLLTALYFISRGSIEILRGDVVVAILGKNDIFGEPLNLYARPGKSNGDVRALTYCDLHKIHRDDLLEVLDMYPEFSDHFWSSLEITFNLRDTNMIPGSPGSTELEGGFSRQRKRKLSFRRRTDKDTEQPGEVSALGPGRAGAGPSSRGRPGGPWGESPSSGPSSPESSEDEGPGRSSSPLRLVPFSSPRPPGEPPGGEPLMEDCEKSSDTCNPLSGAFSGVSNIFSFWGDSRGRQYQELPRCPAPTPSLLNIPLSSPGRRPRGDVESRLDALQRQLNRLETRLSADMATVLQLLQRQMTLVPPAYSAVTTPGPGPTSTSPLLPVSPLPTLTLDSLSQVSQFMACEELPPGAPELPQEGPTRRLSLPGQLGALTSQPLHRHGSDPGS

**Q.** With O=[N+]([O-])c1ccc(C2C3C(c4ccccc4)=NC4(CCCCC4)N32)cc1 (stereo not shown) as the compound, how does the “hERG current change (%, negative = inhibition) at 10uM” value read?
**A.** Its value is -1.45%.

**Q.** Cn1c(-c2ccc(C(F)(F)F)cc2)cc2onc(-c3ccccc3)c2c1=O was tested. Which “hERG current change (%, negative = inhibition) at 10uM” value did it give?
**A.** Its value is 7.65%.

**Q.** For CC(/C=N/NC(=O)Cc1cccn1C)=C\c1ccccc1, which “hERG current change (%, negative = inhibition) at 10uM” value is on record?
**A.** Its value is -11%.

**Q.** For CCc1nnc(NC(=O)c2ccc(S(=O)(=O)N(C)Cc3ccccc3)cc2)o1, which “hERG current change (%, negative = inhibition) at 10uM” value is on record?
**A.** Its value is -25.6%.

**Q.** CCCC(=O)N(CCc1ccccc1)Cc1nc2ccccc2c(=O)[nH]1 was tested. Which “hERG current change (%, negative = inhibition) at 10uM” value did it give?
**A.** The value was -15.2%.

**Q.** COc1ccc(CNC(=O)/C=C/c2ccc(OCCCF)cc2)cc1OC was tested. Which “hERG current change (%, negative = inhibition) at 10uM” value did it give?
**A.** The value was -11.2%.

**Q.** How did the “hERG current change (%, negative = inhibition) at 10uM” value turn out when O=C(CSc1ccc(-c2ccccn2)nn1)c1ccc([N+](=O)[O-])cc1 was run?
**A.** The value was 0.0194%.

**Q.** CCCCC(=O)Nc1ccc(NC(=O)c2cccs2)cn1 was tested. Which “hERG current change (%, negative = inhibition) at 10uM” value did it give?
**A.** Its value is -18.8%.

**Q.** How did the “hERG current change (%, negative = inhibition) at 10uM” value turn out when COc1ccc(C(=O)N/C(=C\c2ccc([N+](=O)[O-])cc2)C(=O)NC(CCSC)C(=O)O)cc1 (stereo not shown) was run?
**A.** Its value is 9.2%.

**Q.** Which “hERG current change (%, negative = inhibition) at 10uM” value does the source give for Cn1nnnc1SCC(=O)Nc1ccc(Br)cc1Cl here?
**A.** Its value is -0.151%.

**Q.** With CN(Cc1ccc(N(C)C)cc1)C(=O)c1cc2ccccc2o1 as the compound, how does the “hERG current change (%, negative = inhibition) at 10uM” value read?
**A.** Its value is -18.5%.

**Q.** Which “hERG current change (%, negative = inhibition) at 10uM” value does the source give for Cc1ccc2nsnc2c1S(=O)(=O)NCCc1c(C)[nH]c2ccc(F)cc12 here?
**A.** Its value is -19.8%.

**Q.** With [O-]/C(=C(\C(=S)Nc1ccc(SC(F)F)cc1)[n+]1cccc(CO)c1)c1ccc(Cl)s1 as the compound, how does the “hERG current change (%, negative = inhibition) at 10uM” value read?
**A.** The value was -5.05%.

**Q.** For COc1ccc(OC)c(N2C(=O)CC(Cc3cc(C)cc(C)c3)C2=O)c1 (stereo not shown), which “hERG current change (%, negative = inhibition) at 10uM” value is on record?
**A.** Its value is 1.57%.

**Q.** For CN(C)CCCN(C(=O)c1ccco1)c1nc2ccc(F)cc2s1.Cl, which “hERG current change (%, negative = inhibition) at 10uM” value is on record?
**A.** Its value is -70.5%.

**Q.** How did the “hERG current change (%, negative = inhibition) at 10uM” value turn out when CCOCc1nnc(NC(=O)C2c3ccccc3Oc3ccccc32)s1 was run?
**A.** Its value is 32.8%.

**Q.** Which “hERG current change (%, negative = inhibition) at 10uM” value does the source give for Cc1sc2nc(CN(Cc3ccccc3)C(=O)NC3CCCCC3)[nH]c(=O)c2c1C here?
**A.** The value was 9.46%.

**Q.** For COC(=O)c1c(-c2c(Cl)cccc2Cl)noc1NC(=O)N(C)C, which “hERG current change (%, negative = inhibition) at 10uM” value is on record?
**A.** The value was 22.7%.

**Q.** CCOCC(=O)Nc1c(C(=O)Nc2ccc3c(c2)OCCO3)oc2ccccc12 was tested. Which “hERG current change (%, negative = inhibition) at 10uM” value did it give?
**A.** The value was 0.258%.

**Q.** COc1ccc(N2CCN(C(=O)CCCC3=NS(=O)(=O)c4ccccc4N3)CC2)cc1 was tested. Which “hERG current change (%, negative = inhibition) at 10uM” value did it give?
**A.** The value was -7.68%.

**Q.** CSC1=NCCN1C(=O)C(C)Oc1ccccc1 (stereo not shown) was tested. Which “hERG current change (%, negative = inhibition) at 10uM” value did it give?
**A.** The value was 19.1%.

**Q.** Which “hERG current change (%, negative = inhibition) at 10uM” value does the source give for CCC(C)NC(=O)CSC1=Nc2ccccc2C2=NC(c3ccccc3)C(=O)N12 (stereo not shown) here?
**A.** The value was -55.3%.

**Q.** With Cc1ccc(S(=O)(=O)N2CCN(C(=O)CSc3nnnn3C)C2)cc1 as the compound, how does the “hERG current change (%, negative = inhibition) at 10uM” value read?
**A.** The value was -15.5%.

**Q.** Which “hERG current change (%, negative = inhibition) at 10uM” value does the source give for CCOC(=S)SCC(=O)N1CCc2cc(OC)ccc2C1C1C(=O)CCCC1=O (stereo not shown) here?
**A.** Its value is 26%.

**Q.** With CCCCc1ccc(N2C(=O)[C@@H]3C(CC(N)=O)NC4(C(=O)Nc5ccc(F)cc54)[C@@H]3C2=O)cc1 (stereo partly shown) as the compound, how does the “hERG current change (%, negative = inhibition) at 10uM” value read?
**A.** The value was -0.929%.

**Q.** With Cc1nn(CCC(=O)NCc2ccc(OC(C)C)cc2)c(=O)c2nn(-c3ccccc3)c(C)c12 as the compound, how does the “hERG current change (%, negative = inhibition) at 10uM” value read?
**A.** The value was -11.9%.

**Q.** How did the “hERG current change (%, negative = inhibition) at 10uM” value turn out when Cc1ccc(-n2c(C)cc(C(=O)Cn3nc(C(=O)O)c4ccccc4c3=O)c2C)cc1 was run?
**A.** Its value is 16.1%.

**Q.** For COc1ccc(OC)c(S(=O)(=O)N2CCCCC2C(=O)N2CCN(c3ccccn3)CC2)c1 (stereo not shown), which “hERG current change (%, negative = inhibition) at 10uM” value is on record?
**A.** The value was -18.8%.

**Q.** With Fc1ccc(-c2nnc(Cc3ccc(Cl)cc3)o2)cc1 as the compound, how does the “hERG current change (%, negative = inhibition) at 10uM” value read?
**A.** The value was -16.7%.

**Q.** How did the “hERG current change (%, negative = inhibition) at 10uM” value turn out when CN(C)CC#CCCCCCCC#CCN(C)C was run?
**A.** Its value is 3.84%.

**Q.** How did the “hERG current change (%, negative = inhibition) at 10uM” value turn out when COCCNC(=O)c1cc(S(=O)(=O)N2CCCCC2)ccc1N1CCOCC1 was run?
**A.** The value was 1.23%.

**Q.** How did the “hERG current change (%, negative = inhibition) at 10uM” value turn out when Cc1ccc(NCc2nnc(SCC(=O)Nc3ncc(C)s3)n2Cc2ccco2)c(C)c1 was run?
**A.** Its value is 15.7%.

**Q.** How did the “hERG current change (%, negative = inhibition) at 10uM” value turn out when CC(=O)c1ccc(OCCCC(=O)N2CCN(S(=O)(=O)c3cc(C)ccc3C)CC2)cc1 was run?
**A.** Its value is -37.1%.

**Q.** How did the “hERG current change (%, negative = inhibition) at 10uM” value turn out when O=C(CCN1C(=O)C2CCCCC2C1=O)Nc1cc([N+](=O)[O-])ccc1Cl (stereo not shown) was run?
**A.** The value was -1.62%.

**Q.** Cc1ccccc1NS(=O)(=O)c1nnc(NC(=O)c2ccc(Cl)cc2)s1 was tested. Which “hERG current change (%, negative = inhibition) at 10uM” value did it give?
**A.** Its value is 2.36%.

**Q.** Which “hERG current change (%, negative = inhibition) at 10uM” value does the source give for O=C(Nc1ccccc1Cl)Nc1ccnn1C1CCN(C(=O)c2cscn2)CC1 here?
**A.** Its value is 21.8%.

**Q.** With CCCCC(CC)CNC(=O)Cn1c(=S)[nH]c2ncccc2c1=O (stereo not shown) as the compound, how does the “hERG current change (%, negative = inhibition) at 10uM” value read?
**A.** The value was 14.6%.

**Q.** Which “hERG current change (%, negative = inhibition) at 10uM” value does the source give for CCN(CC)P(=O)(Oc1cccc(C)c1)N(CC)CC here?
**A.** The value was 0.586%.

**Q.** Which “hERG current change (%, negative = inhibition) at 10uM” value does the source give for CCOC(=O)CC(=O)Nc1ccc(Br)cc1C(=O)O here?
**A.** The value was -11.3%.

**Q.** With O=C(CCn1nc(-c2ccc(Cl)cc2)ccc1=O)N1CCOCC1 as the compound, how does the “hERG current change (%, negative = inhibition) at 10uM” value read?
**A.** The value was -36.9%.

**Q.** With CCOCCCNC(=O)C(NC(=O)c1cnccn1)c1ccc(OC)cc1 (stereo not shown) as the compound, how does the “hERG current change (%, negative = inhibition) at 10uM” value read?
**A.** The value was 1.22%.

**Q.** How did the “hERG current change (%, negative = inhibition) at 10uM” value turn out when O=[N+]([O-])c1ccc(Oc2ccc(Oc3ccc(C(F)(F)F)cn3)cc2)nc1 was run?
**A.** Its value is -1.44%.

**Q.** For C=C1c2cc(C)c(C)cc2NC(=O)N1c1ccccc1, which “hERG current change (%, negative = inhibition) at 10uM” value is on record?
**A.** The value was 23%.

**Q.** With Cc1cc(S(=O)(=O)N2CCCCC2CCNC(=O)C(=O)NCc2cccnc2)ccc1F (stereo not shown) as the compound, how does the “hERG current change (%, negative = inhibition) at 10uM” value read?
**A.** Its value is -21.8%.

**Q.** How did the “hERG current change (%, negative = inhibition) at 10uM” value turn out when N#Cc1cc2c(nc1SCc1cccc(Cl)c1)CCCCC2 was run?
**A.** Its value is 8.72%.

**Q.** For COc1cccc(C2SCC(=O)N2c2ccc(C)cc2)c1OC (stereo not shown), which “hERG current change (%, negative = inhibition) at 10uM” value is on record?
**A.** Its value is -22.3%.

**Q.** Which “hERG current change (%, negative = inhibition) at 10uM” value does the source give for O=C(NC12CC3CC(CC(C3)C1)C2)c1cccnc1 here?
**A.** The value was 6.74%.

**Q.** For COc1ccc(-c2noc(CCCC(=O)Nc3ccc(C(N)=O)cc3)n2)cc1OC, which “hERG current change (%, negative = inhibition) at 10uM” value is on record?
**A.** Its value is 3.17%.

**Q.** For O=C(O)CCN(CCC(=O)O)c1ccccc1, which “hERG current change (%, negative = inhibition) at 10uM” value is on record?
**A.** Its value is 3.16%.

**Q.** COC(=O)c1c(NC(=O)c2ccnn2C)sc(C)c1C was tested. Which “hERG current change (%, negative = inhibition) at 10uM” value did it give?
**A.** The value was 4.07%.

**Q.** With COc1ccc(C(=O)N/C(N)=N/c2nc3ccccc3o2)cc1 as the compound, how does the “hERG current change (%, negative = inhibition) at 10uM” value read?
**A.** The value was -0.953%.

**Q.** CC(NC(=O)Cc1cccc(C(F)(F)F)c1)c1ccc(F)cc1 (stereo not shown) was tested. Which “hERG current change (%, negative = inhibition) at 10uM” value did it give?
**A.** Its value is 17.6%.

**Q.** How did the “hERG current change (%, negative = inhibition) at 10uM” value turn out when Cc1ccc2c(CN3CCCCC3CCO)cc(=O)oc2c1 (stereo not shown) was run?
**A.** The value was -45.9%.

**Q.** Cc1ccc(S(=O)(=O)N2CCN(C(=O)c3ccccc3)C2C(C)C)cc1 (stereo not shown) was tested. Which “hERG current change (%, negative = inhibition) at 10uM” value did it give?
**A.** Its value is 5.42%.

**Q.** Which “hERG current change (%, negative = inhibition) at 10uM” value does the source give for C#CCOCCOCCOCCNc1nc(N2CCN(C(=O)CCCCCCCCCCNC(=O)[C@H](CO)n3cc(CCCSC)nn3)CC2)nc(N2CCN(C(=O)CCCCCCCCCCNC(=O)[C@@H]([C@H](C)O)n3cc(C)nn3)CC2)n1 here?
**A.** The value was 8.18%.
